Experimental data: PubChem BioAssay AID624417 (National Center for Advancing Translational Sciences (NCATS), 2012)
In all, about 410,000 compounds went through this assay and about 6,400 (1.6%) were called active. Inconclusive means that the source gave no clear call. Such entries were picked first, then a sample of the others. The call rests on the fitted dose curve; in most records, active means well fitted inhibition curve with a large enough effect; inconclusive means small, poorly fitted or top-dose-only effect; inactive means no such curve, though single readings can be large or run the other way. Potencies of inconclusive entries are left out as doubtful fits.

target: Glucagon-like peptide 1 receptor (Homo sapiens) (UniProt P43220); experiment: qHTS of GLP-1 Receptor Inverse Agonists (Inhibition Mode); details: HEK293 GLP-1R CRE-luciferase, luminescence, 24 h, GLP-1R form is constitutively active; series mostly up to 38.3 µM; further: nearly all actives have a fitted effect of over 55% in size
How it was run: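 Inverse agonism was detected as reduced cAMP-driven luciferase luminescence after 24 h compound treatment. The cells were HEK293 clones expressing constitutively active human GLP-1R with the reporter. Reporter-only and GPR119 cell lines served as counterscreen controls.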
Potency means the concentration at half of the fitted maximal effect; tags describe the fitted curve by direction and shape.

Chain of UniProt P43220 (P43220 whole entry, looked up): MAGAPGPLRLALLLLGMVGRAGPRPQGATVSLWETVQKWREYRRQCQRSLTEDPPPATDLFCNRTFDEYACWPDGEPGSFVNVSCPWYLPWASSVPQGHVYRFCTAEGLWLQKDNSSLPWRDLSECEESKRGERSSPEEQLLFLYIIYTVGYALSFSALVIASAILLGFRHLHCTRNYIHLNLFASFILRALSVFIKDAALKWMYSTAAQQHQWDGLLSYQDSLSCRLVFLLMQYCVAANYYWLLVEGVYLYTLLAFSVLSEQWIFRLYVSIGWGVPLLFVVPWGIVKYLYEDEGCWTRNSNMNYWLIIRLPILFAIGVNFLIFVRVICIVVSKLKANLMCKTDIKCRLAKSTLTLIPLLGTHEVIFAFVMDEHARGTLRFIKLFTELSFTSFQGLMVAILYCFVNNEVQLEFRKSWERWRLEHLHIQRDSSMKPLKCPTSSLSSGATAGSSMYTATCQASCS

`CCOC(CCNC(=O)c1cn(CC(C)C)c(=O)c2c1c1ccccc1n2C)OCC` was tested. Which Potency did it give?
The Potency was “inactive”.

Which Potency does the source give for `Cc1ccc(NC(=O)CNC2CCCCC2)cc1Cl` here?
Its Potency is inconclusive [inhibitor, partial curve, poor fit].

`O=C1NN(c2ccc(Cl)cc2)C(=O)/C1=C\c1ccc(-c2cccc(C(=O)O)c2)o1` was tested. Which Potency did it give?
The Potency was inconclusive [inhibitor, partial curve, poor fit].

`Cc1ccc(C(=O)OCC(=O)Nc2ccccc2C(F)(F)F)cc1S(=O)(=O)N1CCCCC1` was tested. Which Potency did it give?
The Potency was active: 10 µM.

With `COC(=O)c1cc(=O)n(-c2ccccc2)c(=Nc2ccccc2)s1` as the compound, how does the Potency read?
Its Potency is inconclusive [inhibitor, partial curve, poor fit].

Which Potency does the source give for `CCOc1ccc(C(=O)COC(=O)C2COc3ccccc3O2)cc1` (stereo not drawn) here?
The Potency was “inactive”.

For `O=C(CNc1cccc(S(=O)(=O)N2CCOCC2)c1)Nc1ccc(C(F)(F)F)cc1`, which Potency is on record?
Its Potency is inconclusive [inhibitor, single point].

Which Potency does the source give for `CC1Cc2ccccc2N1C(=O)c1ccc(N2CCCC2)c([N+](=O)[O-])c1` (stereo not drawn) here?
Its Potency is inconclusive [inhibitor, partial curve, poor fit].

How did the Potency turn out when `CC(C)c1ccc(OC(=O)c2cccc(S(=O)(=O)N3CCN(C)CC3)c2)cc1` was run?
The Potency was inconclusive [inhibitor, partial curve, poor fit].

How did the Potency turn out when `Cc1ccc([N+](=O)[O-])c(OCCN2CCC(Cc3ccccc3)CC2)c1` was run?
The Potency was inconclusive [inhibitor, partial curve, poor fit].

For `CC(C)CN(C1CCS(=O)(=O)C1)S(=O)(=O)c1ccc(C(C)C)cc1` (stereo not drawn), which Potency is on record?
Its Potency is inconclusive [inhibitor, partial curve, poor fit].

How did the Potency turn out when `C/C(=N\NC(=O)c1cc(-c2cccc([N+](=O)[O-])c2)n[nH]1)c1ccccc1O` was run?
Its Potency is inconclusive [inhibitor, single point].

`Cc1cccc(Nc2nnc(SCC(=O)NC3CCCc4ccccc43)s2)c1C` (stereo not drawn) was tested. Which Potency did it give?
The Potency was active: 8.91 µM.

`Cc1cccc(C)c1OCC(O)CNS(=O)(=O)c1ccccc1C(=O)N1CCOCC1` (stereo not drawn) was tested. Which Potency did it give?
Its Potency is “inactive”.

How did the Potency turn out when `C[C@@H]1CN([C@H](C)CO)S(=O)(=O)c2ccc(Br)cc2O[C@H]1CN(C)C(=O)Nc1cccc(F)c1` was run?
Its Potency is inconclusive [inhibitor, single point].

How did the Potency turn out when `COC(=O)[C@@H]1Cc2c([nH]c3ccccc23)C(C)N1C(=O)c1ccccc1` (stereo partly drawn) was run?
Its Potency is inconclusive [inhibitor, single point].

With `Cc1sc(NC(=O)CSc2nc(O)cc(=O)[nH]2)nc1-c1ccccc1` as the compound, how does the Potency read?
Its Potency is “inactive”.

`O=C(CSc1nc2c([nH]c3ccccc32)c(=O)n1-c1ccccc1)N1CCc2ccccc21` was tested. Which Potency did it give?
Its Potency is “inactive”.

For `O=C(O)c1cccc(N/N=C(\N=Nc2ccccc2)c2ccccc2)c1`, which Potency is on record?
The Potency was inconclusive [inhibitor, full curve, poor fit].

With `CCOC(=O)C1CCCN(C(=O)Cn2cnc3c2c(=O)n(C)c(=O)n3C)C1` (stereo not drawn) as the compound, how does the Potency read?
The Potency was “inactive”.

With `CCOc1ccc(S(=O)(=O)c2c(C(=O)c3ccc(CC)cc3)cnc3ccc(C)cc23)cc1` as the compound, how does the Potency read?
The Potency was inconclusive [inhibitor, partial curve].

`CSc1nc(S(=O)(=O)c2ccccc2)c(Cl)s1` was tested. Which Potency did it give?
Its Potency is “inactive”.

Which Potency does the source give for `O=C1CN(C(=O)c2c(F)cccc2F)C(c2ccc(F)cc2)c2cc(F)ccc2N1` (stereo not drawn) here?
Its Potency is inconclusive [inhibitor, single point].

With `CN(C)CCNC(=O)C1CCN(Cc2cc3ccccc3n2Cc2ccccc2)CC1` as the compound, how does the Potency read?
The Potency was inconclusive [inhibitor, partial curve, poor fit].

`CCOC(=O)c1c(N)sc2c(NC(C)=O)cccc12` was tested. Which Potency did it give?
The Potency was “inactive”.

How did the Potency turn out when `C=COCCCNc1ncnc2sc(-c3ccccc3)cc12` was run?
The Potency was inconclusive [inhibitor, partial curve, poor fit].

Which Potency does the source give for `Cc1cc(C(=O)COC(=O)c2ccccc2NCCO)c(C)n1CC1CCCO1` (stereo not drawn) here?
Its Potency is inconclusive [inhibitor, partial curve, poor fit].

For `CCc1nc2c(OCc3cc(Cl)cc(Cl)c3)cccn2c1N(C)C(=O)c1cccc(OC)c1`, which Potency is on record?
The Potency was inconclusive [inhibitor, single point].

`COc1ccc(N2CCN(CCCNC(=O)c3ccc(CS(=O)(=O)c4ccc(OC)cc4)o3)CC2)cc1` was tested. Which Potency did it give?
The Potency was inconclusive [inhibitor, full curve, poor fit].

How did the Potency turn out when `O=C(NCCCc1ccccc1)Nc1cccc(Cl)c1` was run?
The Potency was inconclusive [inhibitor, partial curve, poor fit].

For `CCCOC(=O)c1c(NC(=O)C(C)Sc2nc(-c3ccccc3)cc(C(F)(F)F)n2)sc(C(=O)N(C)C)c1C` (stereo not drawn), which Potency is on record?
Its Potency is inconclusive [inhibitor, single point].

For `Cc1ccc(C)c(N2CCN(C(=O)CCc3nc(-c4cccc(C(F)(F)F)c4)no3)CC2)c1`, which Potency is on record?
Its Potency is inconclusive [inhibitor, single point].

`O=C1NC[C@H](Cc2ccccc2)N(C[C@@H]2CCCN2C[C@H](Cc2ccccc2)N2C[C@H](Cc3ccccc3)N(CCc3ccccc3)C(=O)C2=O)C1=O` was tested. Which Potency did it give?
Its Potency is inconclusive [inhibitor, single point].

With `CN1CCN(c2ccc(Cl)cc2NC(=O)C2COc3ccccc3O2)CC1` (stereo not drawn) as the compound, how does the Potency read?
Its Potency is inconclusive [inhibitor, partial curve, poor fit].

With `CCCOc1cc(C)c(S(=O)(=O)N2CCN(C)CC2)cc1C` as the compound, how does the Potency read?
Its Potency is inconclusive [inhibitor, single point].

With `CC1(C(=O)NS(=O)(=O)c2ccc(Cl)s2)CCN1C(=O)Cc1cc(F)ccc1F` (stereo not drawn) as the compound, how does the Potency read?
Its Potency is inconclusive [inhibitor, single point].

For `O=C(CSc1nnc(CNc2ccc(F)cc2)n1-c1ccccc1)N1CCOCC1`, which Potency is on record?
Its Potency is “inactive”.

`CCCc1ccc2oc(C(=O)N(C)Cc3nccs3)c(C)c2c1` was tested. Which Potency did it give?
Its Potency is inconclusive [inhibitor, single point].

With `CC(C)(C)CC(=O)NCC(c1ccc2c(c1)OCO2)N1CCN(c2ccccc2)CC1` (stereo not drawn) as the compound, how does the Potency read?
The Potency was inconclusive [inhibitor, partial curve, poor fit].

How did the Potency turn out when `O=C(Cc1c(F)cccc1Cl)NNC(=O)c1ccccc1Cl` was run?
Its Potency is “inactive”.

`OCCN1CCN(Cc2nc(-c3cccc(Cl)c3)no2)CC1` was tested. Which Potency did it give?
The Potency was inconclusive [inhibitor, partial curve, poor fit].

For `CCNC(=O)CCc1nc(-c2ccc(C(C)(C)C)cc2)no1`, which Potency is on record?
Its Potency is active: 7.94 µM.

How did the Potency turn out when `O=C(NCc1cccc(Br)c1)c1cnn(-c2ccc(F)cc2)c1-n1cccc1` was run?
The Potency was inconclusive [inhibitor, partial curve, poor fit].

With `CC(=O)c1ccc(NC(=O)c2cc(-c3ccc(C)s3)nc3ccccc23)cc1` as the compound, how does the Potency read?
The Potency was “inactive”.

Which Potency does the source give for `CCOC(=O)c1cnc(SCc2ccc(C(C)(C)C)cc2)nc1N` here?
The Potency was “inactive”.

How did the Potency turn out when `CN(c1ccccc1)S(=O)(=O)c1cccc(NC(=O)C2CC(=O)N(Cc3ccccc3)C2)c1` (stereo not drawn) was run?
The Potency was inconclusive [inhibitor, partial curve, poor fit].

How did the Potency turn out when `O=C1NC2(CCCCC2)NN1c1ccccc1` was run?
The Potency was inconclusive [inhibitor, full curve].

How did the Potency turn out when `Cc1ccc(S(=O)(=O)CNC(=S)c2cccc(Cl)c2)cc1` was run?
Its Potency is inconclusive [inhibitor, single point].

Which Potency does the source give for `C[C@@H]1CC=C[C@H]2[C@H]1C(=O)N(Cc1ccccc1)[C@H]2c1ccc(-c2ccc(F)cc2)cc1F` here?
Its Potency is inconclusive [inhibitor, partial curve, poor fit].

For `CC1CC(C)CN(S(=O)(=O)c2ccc(NC(=O)c3ccc(=O)[nH]c3)cc2)C1` (stereo not drawn), which Potency is on record?
The Potency was inconclusive [inhibitor, single point].

For `Cc1c(C)n(Cc2ccc(Cl)cc2)c2ccc(C(=O)NCCN3CCOCC3)cc12`, which Potency is on record?
Its Potency is active: 3.55 µM.

With `Cc1cc(C)c(S(=O)(=O)Nc2ccc3c4c(cccc24)CC3)c(C)c1` as the compound, how does the Potency read?
The Potency was active: 4.47 µM.

With `COc1ccc2oc(C(=O)OCC(=O)NC(C)c3ccccc3)c(C)c2c1` (stereo not drawn) as the compound, how does the Potency read?
The Potency was “inactive”.

`COC(=O)c1ccc(NC(=O)c2nc(-c3ccc(Cl)cc3)n3c2CCCCC3)cc1` was tested. Which Potency did it give?
Its Potency is inconclusive [inhibitor, full curve, poor fit].

`CCc1ccccc1NNC(=O)c1cc(C)on1` was tested. Which Potency did it give?
Its Potency is inconclusive [inhibitor, partial curve, poor fit].

`Cc1ccc(C(C)C)c(OCC(=O)NNC(=O)Nc2ccccc2)c1` was tested. Which Potency did it give?
The Potency was inconclusive [inhibitor, single point].

`Cc1ccc(Oc2c(CO)c(-c3ccccc3)nn2C)cc1` was tested. Which Potency did it give?
Its Potency is inconclusive [inhibitor, partial curve].

Which Potency does the source give for `CC(NS(=O)(=O)c1ccc(Br)s1)c1ccccc1` (stereo not drawn) here?
Its Potency is inconclusive [inhibitor, single point].

With `COCC1CCCN(Cc2cn(-c3ccccc3F)nc2-c2cc(C)sc2C)C1` (stereo not drawn) as the compound, how does the Potency read?
The Potency was inconclusive [inhibitor, partial curve, poor fit].

How did the Potency turn out when `COc1ccccc1NC(=O)C1=C(C)Nc2nnnn2C1c1ccc(C(F)(F)F)cc1` (stereo not drawn) was run?
The Potency was inconclusive [inhibitor, single point].

Which Potency does the source give for `O=C(NNC(=S)NC(=O)c1ccccc1Cl)c1cccc([N+](=O)[O-])c1` here?
Its Potency is “inactive”.

`CCN(CC)CCNC(=O)C(=O)Nc1ccc2c(c1)N(S(=O)(=O)c1cccs1)CCC2` was tested. Which Potency did it give?
Its Potency is inconclusive [inhibitor, single point].

With `c1ccc(COc2ccc(OCCCNC3CCCC3)cc2)cc1` as the compound, how does the Potency read?
The Potency was inconclusive [inhibitor, partial curve, poor fit].
